Structures are written as SMILES. The list shows a part of the results.

The values that follow come from the antibiotic and cytotoxicity screens of Wong et al. (2023).

The subject of this experiment is HepG2. As to the kind of experiment: cytotoxicity call (relative viability < 0.9). The note with it: 10 µM.
On to `C[C@H]1CN([C@@H](C)CO)C(=O)CCCn2nncc2CO[C@H]1CN(C)S(=O)(=O)c1ccc(Oc2ccccc2)cc1`, for which the cytotoxicity call is “inactive”.

On to `C[C@@H]1CN([C@H](C)CO)C(=O)Cc2cc(NS(=O)(=O)c3ccc(F)cc3)ccc2O[C@H]1CN(C)S(C)(=O)=O`, for which the cytotoxicity call was “inactive”.

Take `Cc1n[nH]c(=O)nc1NCCCOC(C)C`: the cytotoxicity call was “inactive”.

With `O=C(NO)c1cccc(C(=O)N/N=C/[C@H](O)[C@@H](O)[C@@H](O)[C@H](O)C(=O)O)c1`, the cytotoxicity call is “inactive”.

For `CCNC(=O)C[C@@H]1CC[C@H](NC(=O)C2CCOCC2)[C@@H](CO)O1`, the cytotoxicity call is “inactive”.

For `C[C@H](CO)N1C[C@H](C)[C@H](CN(C)C(=O)Nc2cccc3ccccc23)Oc2ccc(NC(=O)Cc3ccccc3)cc2C1=O`, the cytotoxicity call was “inactive”.

As to `CC(C)CC#Cc1ccc2c(c1)O[C@@H](CN(C)C(=O)C1CCOCC1)[C@H](C)CN([C@@H](C)CO)S2(=O)=O`, the cytotoxicity call was “inactive”.

`C[C@@H]1CCCCO[C@@H](CN(C)C(=O)C2CCCCC2)[C@@H](C)CN([C@H](C)CO)C(=O)c2cc(NC(=O)Nc3ccc(F)cc3)ccc2O1`: the cytotoxicity call was “inactive”.

With `CN1CC(=O)NC1=N`, the cytotoxicity call was “inactive”.

On to `Cc1ccc(S(=O)(=O)N[C@@H]2CC[C@@H](CC(=O)N3CCC(Cc4ccccc4)CC3)O[C@H]2CO)cc1`, for which the cytotoxicity call is “inactive”.

In the case of `C[C@@H]1CCCCO[C@@H](CN(C)S(=O)(=O)c2ccc(Cl)cc2)[C@H](C)CN([C@H](C)CO)C(=O)c2cc(NC(=O)CCC(F)(F)F)ccc2O1`, the cytotoxicity call is “active”.

Consider `O=C(O)CN(CCN(CC(=O)O)CC(=O)O)CC(=O)O.[Na+].[Na+]`, for which the cytotoxicity call is “inactive”.

As to `COc1ccc(S(=O)(=O)N(C)C[C@@H]2Oc3c(NS(=O)(=O)c4ccccc4)cccc3C(=O)N([C@@H](C)CO)C[C@@H]2C)cc1`, the cytotoxicity call is “inactive”.

As for `O=C(C[C@@H]1CC[C@H](NC(=O)c2cnccn2)[C@H](CO)O1)NCc1ccccc1F`, the cytotoxicity call is “inactive”.

For `Cc1ccc(S(=O)(=O)Nc2ccc3c(c2)CC(=O)N([C@@H](C)CO)C[C@H](C)[C@H](CN(C)S(=O)(=O)c2ccccc2)O3)cc1`, the cytotoxicity call is “inactive”.

For the compound `O=C(N[C@H]1CC[C@@H](CC(=O)N2CCOCC2)O[C@@H]1CO)c1ccc2c(c1)OCO2`, the cytotoxicity call was “inactive”.

As for `C[C@@H]1CN([C@H](C)CO)C(=O)c2cc(NC(=O)Cn3cnnn3)ccc2O[C@H]1CN(C)Cc1ccc(C(F)(F)F)cc1`, the cytotoxicity call is “inactive”.

With `COc1ccc(COCC23Oc4ccccc4[C@H]([C@H]2CO)n2c(c4ccccc4c(-c4ccccc4)c2=O)N3C)cc1`, the cytotoxicity call is “active”.

Take `COc1ccc(CN(C)C[C@H]2OCCCC[C@H](C)Oc3ccc(NC(=O)c4ccncc4)cc3C(=O)N([C@H](C)CO)C[C@@H]2C)cc1`: the cytotoxicity call is “inactive”.

In the case of `CNC[C@@H]1OCCCC[C@@H](C)Oc2ccc(NC(=O)Nc3ccc(C(F)(F)F)cc3)cc2C(=O)N([C@@H](C)CO)C[C@H]1C`, the cytotoxicity call is “inactive”.

In the case of `O=C(O)[C@H](O)[C@H](O)[C@H](O)[C@H](O)CO`, the cytotoxicity call was “inactive”.

For the compound `COC(=O)CNC(=O)C(=O)OC`, the cytotoxicity call was “inactive”.

On to `C[C@@H]1CN([C@@H](C)CO)C(=O)c2cccc(NC(=O)c3nc4ccccc4s3)c2O[C@H]1CN(C)S(=O)(=O)c1cn(C)cn1`, for which the cytotoxicity call is “inactive”.

`FC(F)(F)c1ccc(CSc2c[nH]c3ccccc23)cc1`: the cytotoxicity call is “inactive”.

With `Cc1noc(C)c1NC(=O)Nc1ccc2c(c1)C(=O)N([C@H](C)CO)C[C@@H](C)[C@H](CN(C)S(=O)(=O)c1ccccc1)OCCCC[C@H](C)O2`, the cytotoxicity call is “inactive”.

Turning to `C[C@@H]1CN([C@H](C)CO)C(=O)c2c(c3ccccc3n2C)-c2ccccc2CO[C@@H]1CN(C)Cc1ccc(C(=O)O)cc1`, the cytotoxicity call is “inactive”.

With `C[C@@H]1CN([C@@H](C)CO)C(=O)c2cc(C#CCN(C)C)cnc2O[C@@H]1CN(C)S(=O)(=O)c1ccccc1`, the cytotoxicity call was “inactive”.

Consider `C[C@H]1CN([C@@H](C)CO)C(=O)c2cccc(NC(=O)Nc3cccc4ccccc34)c2O[C@@H]1CN(C)S(=O)(=O)c1ccccc1`, for which the cytotoxicity call is “inactive”.

Consider `Cc1noc(C)c1NC(=O)Nc1ccc2c(c1)C(=O)N([C@H](C)CO)C[C@H](C)[C@@H](CN(C)Cc1ccc(-c3ccccc3)cc1)O2`, for which the cytotoxicity call was “inactive”.

As for `C[C@H](CO)N1C[C@H](C)[C@H](CN(C)S(=O)(=O)c2cn(C)cn2)Oc2ccc(NC(=O)CCCCCC(=O)Nc3ccccc3N)cc2C1=O`, the cytotoxicity call is “inactive”.

As to `Nc1cc([N+](=O)[O-])ccc1C(=O)O`, the cytotoxicity call was “inactive”.

For the compound `CC(C)CC#Cc1cnc2c(c1)C(=O)N([C@H](C)CO)C[C@H](C)[C@H](CN(C)S(=O)(=O)c1ccccc1)O2`, the cytotoxicity call was “inactive”.

For `C[C@@H]1CN([C@H](C)CO)C(=O)c2cc(NC(=O)Cc3cn(C)c4ccccc34)ccc2O[C@H]1CN(C)Cc1ccc(Oc2ccccc2)cc1`, the cytotoxicity call was “inactive”.

Take `COCC(=O)N1CC[C@]2(CC1)CN([C@@H](CO)c1[nH]c3cc(ccc3c12)OC)S(=O)(=O)C`: the cytotoxicity call is “inactive”.

With `Cc1cc(C(=O)Nc2cccc3c2O[C@H](CN(C)Cc2ccncc2)[C@@H](C)CN([C@H](C)CO)C3=O)n(C)n1`, the cytotoxicity call was “inactive”.

Regarding `COc1ccc(S(=O)(=O)Nc2ccc3c(c2)CC(=O)N([C@H](C)CO)C[C@@H](C)[C@@H](CN(C)Cc2ccc(Oc4ccccc4)cc2)O3)cc1`, the cytotoxicity call is “active”.

In the case of `C[C@H](CO)N1C[C@H](C)[C@@H](CN(C)Cc2ccc(C(F)(F)F)cc2)Oc2c(NC(=O)c3nc4ccccc4s3)cccc2C1=O`, the cytotoxicity call was “inactive”.

Regarding `C[C@@H]1CN([C@@H](C)CO)C(=O)CCCn2cc(nn2)CO[C@@H]1CN(C)S(C)(=O)=O`, the cytotoxicity call was “inactive”.

For the compound `CCOC(=O)c1n[nH]c(=S)[nH]c1=O`, the cytotoxicity call was “inactive”.

For `COc1ccccc1-c1cnc2c(c1)C(=O)N([C@@H](C)CO)C[C@@H](C)[C@@H](CN(C)C(=O)c1ccncc1)O2`, the cytotoxicity call was “inactive”.
